Experimental data published in PubChem BioAssay AID651820 (National Center for Advancing Translational Sciences (NCATS), 2012).
Out of some 340,000 compounds screened, about 12,000 (3.5%) were called active. Inconclusive results, whose numbers are uncertain, are shown with a selection of clear calls. Calls follow the shape of the dose curve; as a rule, active = well fitted inhibition curve with a large enough effect; inconclusive = small, poorly fitted or top-dose-only effect, or another doubt; inactive = no such curve, though single readings can be large or run the other way. No potency is given beside an inconclusive call; the fits are too rough.

Experiment: qHTS Assay for Inhibitors of Hepatitis C Virus (HCV)
Conditions: Huh7.5.1 HCVcc-Cre (HCVcc is cell-culture hepatitis C virus) infection, luciferase reporter, 44 h; series mostly up to 41.8 µM
How it was run: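 Infectious HCVcc-Cre (~0.5 moi) was added to cells just after compound, with cells seeded 4 h earlier at 1,000 per well. Luciferase activity after 44 h culture reported infection; substrate was incubated 15 min at room temperature before reading.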
Potency is read from the fitted curve at half-maximal effect; tags tell the direction and shape of the fitted curve.

SMILES | Potency
S=c1[nH]nc(-c2ccco2)n1/N=C/C(Cl)=C/c1ccccc1 | inactive
CC(C)n1ncc2c(C(=O)Nc3ccc(S(C)(=O)=O)cc3)cc(C3CC3)nc21 | active: 5.62 µM
Cn1c(=O)n(C)c2cc([N+](=O)[O-])c(N3CCN(C(=O)c4ccccc4)CC3)cc21 | inconclusive [inhibitor, single point]
COCc1cc(C2SCC(=O)Nc3c2c(=O)[nH]n3C(C)C)ccc1OC (stereo not drawn) | active: 5.62 µM
COc1ccc(NS(=O)(=O)c2cc(NC(=O)c3cccs3)ccc2N2CCCC2)cc1 | inconclusive [inhibitor, partial curve]
COc1ccc(/C=N/n2c(SC)nnc2-c2ccccc2)c(OC)c1OC | inconclusive [inhibitor, full curve]
Cn1cnc([N+](=O)[O-])c1Sc1ccc(Br)cc1 | inconclusive [inhibitor, single point]
COc1ccccc1N(CC(=O)N/N=C(\C)c1ccc(F)cc1)S(=O)(=O)c1ccccc1 | inactive
O=C(CNS(=O)(=O)c1ccc(Cl)c(C(F)(F)F)c1)NC1CCCCCC1 | inactive
O=C(Nc1cc2c(cc1Br)OCCO2)c1cccs1 | inconclusive [inhibitor, single point]
CN(c1ccccc1)S(=O)(=O)c1ccc(C(=O)N2CCN(c3ccccc3F)CC2)cc1 | inconclusive [inhibitor, single point]
CSc1ccc(CN2CCN(C(=O)c3ccc([N+](=O)[O-])cc3)CC2)cc1 | inconclusive [inhibitor, partial curve]
CC(NC(=O)CSc1n[nH]c(=O)n1C1CC1)C12CC3CC(CC(C3)C1)C2 (stereo not drawn) | inactive
NS(=O)(=O)c1ccc(Cc2ncc(C(F)(F)F)cc2Cl)s1 | inconclusive [inhibitor, single point]
COC(=O)c1c(NC(=O)C(=O)N2CCCCC2)sc2c1CC(C)(C)OC2 | inconclusive [inhibitor, single point]
COc1ccc(NC(=O)C23CC4CC(C2)CC(n2cnc(Br)n2)(C4)C3)cc1Cl | inconclusive [inhibitor, single point]
NC(=O)c1ncn([C@@H]2O[C@H](CNCc3ccc(OCC(=O)Nc4ccccn4)cc3)[C@@H](O)[C@H]2O)n1 | inactive
Brc1ccc(-c2csc3ncnc(-n4nnc5ccccc54)c23)cc1 | inconclusive [inhibitor, single point]
COc1ccc2nc(NC(=O)c3ccc4ncsc4c3)sc2c1 | inconclusive [inhibitor, single point]
COc1ccc(-c2cc(C(=O)N/N=C/c3cccnc3)c3cc(C)cc(C)c3n2)cc1 | inactive
O=C(Nc1cc(Sc2ccccn2)cc([N+](=O)[O-])c1)c1cccc(F)c1 | inconclusive [inhibitor, single point]
COc1ccc(CCn2c(=N)c(C(=O)N3CCN(C)CC3)cc3c(=O)n4ccccc4nc32)cc1 | inactive
CCCCc1cc(=O)oc2c3c(cc(OCC(=O)NCCCO)c12)OC(C)(C)CC3 | inconclusive [inhibitor, partial curve]
O=C(Nc1ccc(N2CCCC2)cc1)C(c1ccccc1)c1ccccc1 | inactive
Cc1c(C)c(C)c(S(=O)(=O)NCCC(=O)N2CCN(Cc3ccc(C#N)cc3)CC2)c(C)c1C | active: 12.6 µM

SMILES | Potency
C=CCOC(=O)C1=C[C@H](c2csc3ccccc23)[C@@H](CCCO)[C@H](OCC)O1 | inconclusive [inhibitor, single point]
O=C(NCCC1CCCCN1S(=O)(=O)c1ccc(Cl)cc1)C(=O)NCc1cccnc1 (stereo not drawn) | inactive
COc1cc(-c2nnc(SCc3ccccc3Cl)o2)cc(OC)c1OC | inconclusive [inhibitor, partial curve]
CN1C(=O)C2(c3ccccc31)N(C)CC(c1ccccc1)C21SC(=S)N(Cc2ccco2)C1=O (stereo not drawn) | active: 10 µM
COc1cccc2oc3cc(C#Cc4ccccn4)ccc3c(=O)c12 | inactive
O=C(Cc1n[nH]c(=O)c2ccccc12)NCc1ccc(Cl)cc1 | inconclusive [inhibitor, single point]
COCc1c(C#N)c(NCCc2ccccc2)nc(C)c1[N+](=O)[O-] | inactive
O=C(NC1CC1)c1ccc(CSCc2cccc(F)c2)o1 | inconclusive [inhibitor, single point]
O=S(=O)(Nc1ccc2c(c1)OCCO2)c1ccc2oc3ccccc3c2c1 | inconclusive [inhibitor, single point]
COc1cccc(C(=O)Nc2ccc(NC(=O)c3ccco3)c(Cl)c2)c1 | inconclusive [inhibitor, partial curve]
C=CCNCCCOc1ccc(C)cc1Br | inconclusive [inhibitor, single point]
CC(C)n1cnnc1SCC(=O)Nc1cccc(S(=O)(=O)N(C)c2ccccc2)c1 | inconclusive [inhibitor, single point]
COc1cc(C(=O)Nc2ccc3nc4n(c(=O)c3c2)CCCCC4)cc(OC)c1OC | active: 11.2 µM
Nc1nc2cc(S(=O)(=O)NC3=NCCCCC3)ccc2s1 | inactive
C=CCn1c(C)cc(C(=O)COc2ccc(N(C)S(=O)(=O)c3ccc(NC(C)=O)cc3)cc2)c1C | active: 8.91 µM
Cc1sc2ncnc(SCC(=O)N3CCN(C(=O)c4ccco4)CC3)c2c1C | inactive
CN(C)c1cc(N/N=C\c2ccccc2)nc(N(C)C)n1 | inconclusive [inhibitor, partial curve]
COc1ccc(/C=N/NC(=O)COc2cc(C)cc(C)c2)cc1COC(C)=O | inactive
O=C(Nc1cccc(-n2cnnn2)c1)C1CCCN(Cc2cccc(C(F)(F)F)c2)C1 (stereo not drawn) | inconclusive [inhibitor, single point]
CC(=O)N/N=c1\sc2ccccc2n1C | inactive
COc1cc2c(cc1NC(=O)C(C)OC(=O)/C=C/c1ccc(OC(F)F)cc1)oc1ccccc12 (stereo not drawn) | inconclusive [inhibitor, single point]
CN(C)S(=O)(=O)Oc1ccsc1C(=O)Nc1ccc(Cl)cc1 | inconclusive [inhibitor, single point]
CCc1ccc(NC(=O)Cn2c(=O)c3cccn3c3ccccc32)cc1 | inactive
CC(C)(C)SCCNC(=O)c1ccc(Cl)c(S(=O)(=O)N2CCOCC2)c1 | inconclusive [inhibitor, partial curve]
Cc1nn(-c2ccccc2)c(C)c1C(=O)OCC(=O)Nc1ccc2c(c1)OCO2 | inconclusive [inhibitor, partial curve, poor fit]

SMILES | Potency
Cc1cccc(NC(=O)CCn2cnnn2)c1 | inactive
CN(C)C(=S)c1ccccc1 | inactive
CCN(CC)C1CCN(C(=O)c2cc(COc3ccccc3SC)on2)C1 (stereo not drawn) | inconclusive [inhibitor, single point]
O=C(c1ccco1)N1N=C(c2ccccc2)CC1c1ccc2nccnc2c1 (stereo not drawn) | inconclusive [inhibitor, single point]
CCC(=O)N(CCC(c1ccc(C)cc1)c1ccco1)Cc1ccco1 (stereo not drawn) | active: 11.2 µM
Cc1ccc(C(=O)NNC(=O)C2CSC3(C)CCC(=O)N23)cc1 (stereo not drawn) | inconclusive [inhibitor, single point]
CC1CCCC(C)N1CC(O)COC1CCC(C(C)(C)C)CC1 (stereo not drawn) | active: 12.6 µM
O=c1c2c([nH]c3ccccc13)CCCC2 | inactive
CCCOCc1ccc(O)c2ncccc12 | active: 5.62 µM
COc1ccccc1C(=O)NC(=O)COC(=O)c1cccc(OC(F)F)c1 | inactive
CCN(CC)S(=O)(=O)c1cccc(C(=O)Nc2cccc(C)c2)c1 | inconclusive [inhibitor, single point]
O=C(CCc1ccccc1)Nc1ccc(Cl)cn1 | inconclusive [inhibitor, full curve]
COc1ccc(C(=O)Nc2ccc(NC(=O)c3ccccc3OC)nc2)cc1 | inconclusive [inhibitor, partial curve, poor fit]
Cc1ccccc1Nc1cc(C(=O)NCc2ccco2)c2ccccc2n1 | inconclusive [inhibitor, single point]
O=S(=O)(NCCC(c1ccc(F)cc1)c1ccco1)c1ccccc1 (stereo not drawn) | inconclusive [inhibitor, partial curve]
C=CCn1c(SCC(=O)Nc2ccc(-c3nc4ccc(C)cc4s3)cc2)nnc1-c1ccccc1 | active: 10 µM
OC(COCCOc1ccc(Br)cc1)CN1CCCCC1 (stereo not drawn) | inconclusive [inhibitor, single point]
O=C(COC(=O)C1CC(=O)N(CCc2ccccc2)C1)c1ccc[nH]1 (stereo not drawn) | inactive
COc1ccc(C(C)=O)cc1CSc1nnc(SCc2cc(C(C)=O)ccc2OC)s1 | inactive
O=C(CSc1nc2nc3c(cc2c(=O)n1-c1ccccc1)CCCC3)Nc1ccccc1 | inconclusive [inhibitor, partial curve, poor fit]
Cn1c(=O)[nH]c(=O)c2c1nc(Br)n2CC(O)COCc1ccccc1 (stereo not drawn) | inactive
O=[N+]([O-])c1cccc(COc2ccc(CN3CCCC3)cc2)c1 | inconclusive [inhibitor, partial curve, poor fit]
O=C(O)c1cccc(S(=O)(=O)NCc2cccs2)c1 | inactive
